The list shows a part of the results.
tested on: HSkMC (human skeletal muscle cells); assay: cytotoxicity call (relative viability < 0.9); details: 10 µM

Compound	cytotoxicity call
Cc1noc(C)c1NC(=O)Nc1ccc2c(c1)C(=O)N([C@H](C)CO)C[C@H](C)[C@H](CN(C)C(=O)NC1CCCCC1)OCCCC[C@@H](C)O2	inactive
COc1ccc(S(=O)(=O)N2C[C@@H](O)COC[C@H]3O[C@H](CC(=O)NCc4ccc(Cl)c(Cl)c4)CC[C@@H]32)cc1	inactive
C[C@H](CO)N1C[C@H](C)[C@@H](CN(C)C(=O)c2ccc3c(c2)OCO3)Oc2cc(-c3cncnc3)ccc2S1(=O)=O	inactive
COc1ccc(S(=O)(=O)Nc2ccc3c(c2)CC(=O)N([C@H](C)CO)C[C@H](C)[C@H](CN(C)C)O3)cc1	inactive
CC(C)CS(=O)(=O)C1CN(S(C)(=O)=O)C1	inactive
Cc1ccc(S(=O)(=O)N(C)C[C@H]2OCCCC[C@@H](C)Oc3ccc(NC(=O)Nc4c(C)noc4C)cc3C(=O)N([C@H](C)CO)C[C@@H]2C)cc1	inactive
C[C@@H]1CN([C@H](C)CO)C(=O)c2cc(NC(=O)Nc3cccc4ccccc34)ccc2O[C@H]1CN(C)C(=O)Nc1ccccc1	inactive
Cc1cc(C(=O)Nc2cccc3c2O[C@H](CN(C)Cc2ccncc2)[C@H](C)CN([C@H](C)CO)C3=O)n(C)n1	inactive
COc1ccc(S(=O)(=O)Nc2cccc3c2O[C@H](CN(C)S(=O)(=O)c2ccccc2)[C@H](C)CN([C@H](C)CO)C3=O)cc1	inactive
O=c1cc(CN2CCCC2)nc2n1CCCNC2	inactive
C[C@@H]1CN([C@@H](C)CO)C(=O)c2cc(NS(=O)(=O)c3ccccc3)ccc2O[C@@H]1CN(C)S(=O)(=O)c1ccccc1	inactive
C[C@@H]1CN([C@H](C)CO)C(=O)Cc2cc(NS(=O)(=O)c3ccccc3)ccc2O[C@H]1CN(C)S(=O)(=O)c1cn(C)cn1	inactive
COc1ccc(S(=O)(=O)N(C)C[C@@H]2Oc3c(NS(=O)(=O)c4ccccc4)cccc3C(=O)N([C@@H](C)CO)C[C@@H]2C)cc1	inactive
C[C@H]1CN([C@@H](C)CO)C(=O)Cc2cc(NC(=O)Nc3ccc(C(F)(F)F)cc3)ccc2O[C@H]1CN(C)C(=O)Nc1ccc(F)cc1	inactive
C[C@@H]1CN([C@@H](C)CO)C(=O)c2cc(NS(=O)(=O)c3ccc(F)cc3)ccc2O[C@@H](C)CCCCO[C@@H]1CN(C)C(=O)Nc1ccc(C(F)(F)F)cc1	inactive
COc1ccc(NC(=O)Nc2ccc3c(c2)C(=O)N([C@@H](C)CO)C[C@H](C)[C@H](CN(C)C(=O)CCC(F)(F)F)OCCCC[C@@H](C)O3)cc1	inactive
COCC#Cc1cnc2c(c1)C(=O)N([C@H](C)CO)C[C@@H](C)[C@@H](CN(C)S(=O)(=O)c1cn(C)cn1)O2	inactive
C[C@H]1CN([C@@H](C)CO)C(=O)c2cc(NC(=O)Nc3cccc4ccccc34)ccc2O[C@@H]1CN(C)Cc1ccc(-c2ccccc2)cc1	active
Cc1ccc(S(=O)(=O)Nc2ccc3c(c2)CC(=O)N([C@@H](C)CO)C[C@H](C)[C@H](CN(C)C(=O)NC(C)C)O3)cc1	inactive
O=C(c1ccccc1Cl)n1c2ccccc2c2ccccc21	inactive

Compound	cytotoxicity call
COc1ccc(NC(=O)Nc2cccc3c2O[C@@H](CN(C)S(=O)(=O)c2cn(C)cn2)[C@@H](C)CN([C@@H](C)CO)C3=O)cc1	inactive
Nc1nc(=O)c2nc(Br)n([C@H]3O[C@H]4COP(=O)(O)O[C@@H]4[C@@H]3O)c2[nH]1	inactive
CC(C)NC(=O)Nc1ccc2c(c1)CC(=O)N([C@H](C)CO)C[C@H](C)[C@H](CN(C)S(=O)(=O)c1ccc(Cl)cc1)O2	inactive
C[C@@H]1CN([C@@H](C)CO)C(=O)c2cc(NS(=O)(=O)c3ccc(F)cc3)ccc2O[C@H]1CN(C)S(=O)(=O)c1ccccc1	inactive
C[C@H]1CCCCO[C@H](CN(C)Cc2ccccc2)[C@@H](C)CN([C@@H](C)CO)C(=O)c2cc(NS(=O)(=O)c3ccc(F)cc3)ccc2O1	inactive
O=c1cc(CN2CC[C@H](N3CCOCC3)[C@H](CCCO)C2)nc2c(O)cccn12	inactive
COC(=O)c1sc2ncn(N)c(=O)c2c1C	inactive
C[C@H]1CN([C@@H](C)CO)C(=O)c2cc(NC(=O)Nc3cccc4ccccc34)ccc2O[C@H]1CN(C)C(=O)Nc1ccc(C(F)(F)F)cc1	inactive
CN(C)CCC=C1c2ccccc2COc2ccccc21.Cl	inactive
C[C@@H]1CN([C@@H](C)CO)C(=O)c2cc(C#CCN(C)C)cnc2O[C@@H]1CN(C)C(=O)Nc1ccccc1F	inactive
Cc1noc(C)c1NC(=O)N(C)C[C@@H]1Oc2ccc(NC(=O)CCN3CCOCC3)cc2CC(=O)N([C@@H](C)CO)C[C@H]1C	inactive
C[C@H](CO)N1C[C@H](C)[C@@H](CN(C)Cc2ccncc2)OCCCC[C@H](C)Oc2ccc(NC(=O)Cc3ccccc3)cc2C1=O	inactive
O=c1cc[nH]c(=O)[nH]1	inactive
COc1ccc(C#Cc2cnc3c(c2)C(=O)N([C@H](C)CO)C[C@H](C)[C@H](CN(C)C(=O)NC(C)C)O3)cc1OC	inactive
C[C@@H]1CN([C@H](C)CO)C(=O)c2cc(NC(=O)CCC(F)(F)F)ccc2O[C@@H]1CN(C)Cc1ccc(-c2ccccc2)cc1	inactive
CN(C)Cc1cn(CC[C@H]2CC[C@H](N)[C@@H](CO)O2)nn1	inactive
C[C@@H]1CN([C@@H](C)CO)C(=O)Cc2cc(NS(=O)(=O)c3cn(C)cn3)ccc2O[C@H]1CN(C)Cc1ccc2c(c1)OCO2	inactive
C[C@@H]1CCCCO[C@@H](CN(C)Cc2ccccc2)[C@H](C)CN([C@@H](C)CO)C(=O)c2cc(NC(=O)c3ccncc3)ccc2O1	inactive
C[C@H]1CN([C@@H](C)CO)C(=O)c2cc(NC(=O)Nc3ccc4c(c3)OCO4)ccc2O[C@@H]1CN(C)C(=O)Nc1ccc(C(F)(F)F)cc1	inactive
COc1ccc(S(=O)(=O)Nc2ccc3c(c2)CC(=O)N([C@@H](C)CO)C[C@H](C)[C@H](CN(C)S(=O)(=O)c2ccc(OC)cc2)O3)cc1	inactive

Reference: the antibiotic and cytotoxicity screens of Wong et al. (2023)
